This is one part of the list. At the low end of the ranking the order means little. Measured with an extract: partners may take part in the binding.
Biological target: T1, HNF4alpha2 (COS-7 nuclear extract) (UniProt P41235)
T1 sequence: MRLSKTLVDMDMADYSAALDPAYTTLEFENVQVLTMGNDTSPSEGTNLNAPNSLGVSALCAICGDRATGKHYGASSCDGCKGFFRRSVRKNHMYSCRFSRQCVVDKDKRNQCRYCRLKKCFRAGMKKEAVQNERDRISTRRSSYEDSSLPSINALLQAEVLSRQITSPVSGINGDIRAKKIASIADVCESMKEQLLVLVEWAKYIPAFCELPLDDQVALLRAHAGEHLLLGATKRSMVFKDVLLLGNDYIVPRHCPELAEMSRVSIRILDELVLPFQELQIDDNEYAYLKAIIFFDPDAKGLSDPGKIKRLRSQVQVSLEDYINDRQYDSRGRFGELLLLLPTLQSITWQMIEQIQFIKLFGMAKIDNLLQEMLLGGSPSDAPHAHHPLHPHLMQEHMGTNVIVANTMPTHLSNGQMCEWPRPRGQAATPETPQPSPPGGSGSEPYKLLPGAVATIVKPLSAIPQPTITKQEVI
Assay: protein-binding microarray
Settings: COS-7 nuclear extract on double-stranded Agilent 4x180k PBM; binding buffer, salt, pH and temperature not given; high values mean tight binding; double strand, one strand shown; sequences stand for … in …GCCTAGGGAGATTAGAGTATCGGTCGA

Row | Sequence | binding signal (log2 normalized intensity)
1 | AAATAAGAATGACCAGGAGTTTGGGATCAG | -0.444
2 | GACTAGCCACAATAGGCCCTCCCAGCCTAT | -0.691
3 | GGTTGTGTTTGCAGTGAGTAACCTTGAGGA | 1.83
4 | ATGTTCCCACGAAACCCTAAACCTGCAAAC | -1.18
5 | TGTTATCAGTTAATTGCATTCTTTGATGTG | 1.95
6 | AAAGGAATGCGCCTGAACTGACTGCATTCC | -1.01
7 | AAATGCAGGTGAGAGGCCTCTAAGCATAAC | -1.2
8 | CCTTCCCTTTCATGTTGAACGTCTTCAGAA | 1.49
9 | AAGGAAGAGGGAAGACCAAAGGCCAAAGAG | -1.16
10 | CAAGTTACACAAGTAGAATGAAAGCGGCTC | -0.675
11 | CCAGCAGCTCCAGGAGACGTAGAGATAAGG | -1.16
12 | CTCTGAGCTTCATCCTGACCATCTGCGAAA | -0.953
13 | ACCCTCAGGAACCAAGCATTTTGCAAGTTC | -1.05
14 | CTGAGGTGGGAGGATCGCTTGAGCCTGGGA | -0.722
15 | TCTTGTAATCTGCTTCCAGTTCCATAATCC | 1.25
16 | AGTGGGAGTTACACTATCGGCTTCCCTGGT | -0.916
17 | GATAATAAGTGACCCAGGAGGAGAAGGGTG | -1.05
18 | TCATGGCTCACTGCACCTTGACCTCCTGGG | 4.99
19 | GAGGTGTTCGGGGGACGGAGAGCAGGGCGT | -0.964
20 | ACATTCATCTGAGACTAACTGCATTTTGGA | 1.36
21 | ATGCCCCATGGTAAGAACTACAGTTGACCT | 4.18
22 | AATGTGATAAGAATTTTGTGCAATTACACA | -0.0257
23 | TACTGAAAATGACCTTTGTTCCCTGCACTT | 7.15
24 | GGTCACAAGAGGTGCTGTGTGCCTGAGAAT | -1.08
25 | AAGGAACTCCATCCTCACTTTAGGTGCTCT | -0.705

Row | Sequence | binding signal (log2 normalized intensity)
26 | TGCTGACCTTTAAGCCTATAGTTTCTGTTT | 2.74
27 | ACTGTAAACATCTAATGAACTGATTAGAAC | -0.441
28 | TAAAGATAAGAACGCTAGACACTGGGGACT | -1.2
29 | AAGAACACAGCGCAGCACACTGCAGCGGCA | -1.14
30 | AGAGCAGGAATTCTGATCTTTGACCTCTCC | 7.34
31 | TGGTGGCTTGAGTTGGAGAAGAGCAAAGAT | -0.197
32 | AGTGCCAGAGCTGTGAAGACTGCAGCAAAG | -1.08
33 | GACTCAAATCCAAGCTGGCTGGCTTTAGAG | -1.11
34 | TGTCCTGAGTTATTGGAAGAATGGAATTGC | 1.37
35 | GTAACTCTGGGTCTGAGACCAAAGTCCAGA | 5.65
36 | GCACTAAGCCGAACGCTGGGGCAAAGGTTT | 1.75
37 | ATCGGTAAATACGAATAATCATATCTGCCT | -1.11
38 | ACAGGATCAATAAAAGGTCCAGAGTTCACT | 3.59
39 | ACGGCGCTGACGCCGCCTCTGCCTCTTGAC | -1.21
40 | GCTGAAGGGAAGGCTGCCGTCCTCAGTGAA | -1.2
41 | AGCCAAGTTTTGCAACATACTGAAAAAGGG | -1.19
42 | GCAGAAACAAATACAGACACACCTAGGGAG | -1.2
43 | AACTCTCAGTTTGGCTCTTATGTCCCTCCT | 1.35
44 | AGAGGCCTGGGAATGCCTAGGGGGAAGCCC | -1.16
45 | CTTTGCCCCCAGCCTCTCACAGTAGCCCAG | 4.6
46 | AAACCAACACCAGCAACCGCCTACCTTTGG | -1.12
47 | TGGCCTGGTTCCTTCTCAGTGACAAAAACA | 1.21
48 | CCTTTGAACCAGAGAAGATTCCAGAGGGAG | -1.07
49 | CAGATCAAAGGACATTTCTAAAAATAGCCT | -1.04
50 | GCTGGTTGCCCCTTTGACCCTCGGGCCTCC | 5.62

Row | Sequence | binding signal (log2 normalized intensity)
51 | TGCTCTTTCTTCTCTGTAGGTAAACAGTGA | 2.07
52 | ATTTGTCCGGGTATGTTCTTAAGATAAGGA | 1.31
53 | AACTTTGGAAATGCAAACACCTACATTCAA | -1.08
54 | AAGCGATCTTTGCATTCCCAAAATGATTCC | 0.0417
55 | CTTGGGGCTGATATCTCTCTGGCTGGTGGG | 0.505
56 | GGTTTGGGGTCTAGAACAGCTCCTTTGAAG | -1.08
57 | GGAGCACACCAGGCCCTCGGCATCATGCCC | -1.12
58 | TGTCCTTCATCTATCTCCTTCTTCCCTTCT | 0.428
59 | CTCTAGGCATTGGAGATATGATAGCTGACA | -0.789
60 | TTTTCTCATAAAACACCCACCTTGTTATCT | 1.81
61 | AAATCATGGATCTGTGCTCAGATCCTGCTC | -0.996
62 | AGGGGTGGATCTCTGTCATGTTCAATATAC | 1.9
63 | CAGCTCGTGGGCATGCCTCCCAGAGCATTG | -1.09
64 | GGCGAATGTCAAAGGTCTTTGGTGGTGGGG | 2.23
65 | TGCAGCCTTGGACTCCTGGACTCAAGGAAT | 4
66 | TACTTAAGATAGAGGCTTTAGCAATAAATT | -1.26
67 | ATGGTATGCTCTGATATTCTCTTATCTACT | 0.326
68 | TTCATGATCAGGCAAGTGGTCATGTAGGTG | 2.01
69 | GTTTTTCCTTGATTAAACTTTAGTCAGATT | 2.31
70 | TGGACTTTAAACATTCCCACCTAAGACATA | 2.09
71 | CCGGCCGGCGGGGTCACGTGGGGCCGGTAC | 3.38
72 | TTGGGAGCAATTTAGCAGCACCATCCTACA | -1.01
73 | GGAACGTCACACTGAAAGCTATCCCTCCAT | -0.119
74 | AAACTCTTTTCCTTTTTGCATGAGAATCTG | 1.5
75 | TTTAGGCAGTTTTTGATCAAGGAGGACTTT | 3.93

Row | Sequence | binding signal (log2 normalized intensity)
76 | CTGAGGCCAAAAGTCTCAGAAGCTGGGAGA | -1.16
77 | GCAGCAATCAGCTCCTCAACCAAGGGATCA | -1.12
78 | AAAGAGTGATTGAAGAAGTGGTTCTTTAGA | 0.0315
79 | TCAACTCTGCCATTGTCGTGGTTGTAGAAA | 1.07
80 | ACTTAGTCTCCAGCCCCCAGAGGTCACACT | 3.86
81 | AGCTATGGGCAGAAAAAAATGAGTCACAAT | -0.963
82 | CAGGCATTCCACACTGCAGGCTCTGTCCCC | 0.94
83 | TAAAAACACGAGCTATTGCGAGGTTCCATG | 0.143
84 | TGAAACAAGCCCATCTTCCAGAAAACGGGA | -1.33
85 | GTGGCCCAAGATGGAGATGAGAAACTTATT | -1.16
86 | TCAACTAAGACAGACCCAAAGGTTAAGGAA | -0.888
87 | TCTGAAAAAAGCTATCATTTGTCACTTGGA | 1.38
88 | GCACACACCAAAGCCCAAGGGATCGTCCAA | -1.06
89 | ATAAGGTAACAGGCCAAAGGGCAAGAACAA | 1.83
90 | CAGACCCAAAGGTTAAGGAAACAAGGGTAC | -0.063
91 | TGAGATTACGTAAGTGAAAGTACACAGTGC | 0.781
92 | GAGGGAGAATAAGGGTTCATCTGACTGGAA | -0.852
93 | TGACCGTTCTCTCCGGGTAAAGGTGAAGGC | 1.03
94 | GAACGCTGCGCATACCATATGCATTCCTGC | -1.13
95 | ACTGGTTCCTGCACCCGGGCAGCCTGTGGC | -1.21
96 | TGGACCAAGCTCTAGCATCCCTCTCTTGCT | -1.18
97 | CCAGGACCTTTGCTCATGTCCTCTTGCTTC | 1.57
98 | AACTCCCTCAGAGATGTTTAGTGAGCTGTC | 0.709
99 | CATCTTCACGCAATACTAGCAATAACCACA | -0.153
100 | GCATTTTTAAAATGTTTCAAAGTTTTTCCC | -0.41

Row | Sequence | binding signal (log2 normalized intensity)
101 | TTCTATCCCCTTATCTAAATGGAGTTACTG | 0.934
102 | CCTGATGAAGTAAATGCAGTTTGTCAAGTG | 1.28
103 | CTCTGGCCGGAGGGGAGGTTATCTCGGGGC | -1.16
104 | TGATTATAAACCTGCCTACATCAAGAGGAT | -0.935
105 | CTCTCGGGCCAGCTGTACAAATAAAGGATG | -0.146
106 | TGAGCCTCCTCCCTCTCTCTCTTAAGAACG | 1.05
107 | TCTCAAAAGTTTTTCCCTTCTGTTAGAATG | -0.592
108 | AGGTATTGCCCAGTATTGATGTGAGGGTAG | 1.86
109 | TAGTTAGAGTCACTGATAAGTCTGCTTGCC | -0.728
110 | AGGTTTGGCTGAGAGGGATAAAAGGGGAAA | -1.14
111 | CACCCCAGTGTGTTGCATGCCACAGCGCCC | 1.34
112 | AGCACTGGAATGTCTCTGGTTGAAGGGGAG | -1.11
113 | TGTGGACTTTTTCCTGAGGGCAGGAGGAGC | 1.07
114 | CTCCCTTTGATGCGGTCAGAGTTCATTTGG | 3.48
115 | CACAGCTCAGATCACAAAAGATGGAACAAG | -1.08
116 | GAGAAAACTCCCTCAGAGATGTTTAGTGAG | 0.0672
117 | GTTAAACATTCAGATTCCTGAGCCCAGATC | -1.11
118 | TGACCTTGCAGTGGCAAGGCAAAAGAGACA | 1.17
119 | ACTCACTATCAGGAAACTCTTTCCTAACAG | -1.1
120 | AACAAAGTCCAAATTCCTAACTATGGTTGA | 1.41
121 | AACCTTTCCCTCTCTCCTGGTTTGGGGCCT | 1.92
122 | AGTTGGAAAATGTCGTTTTCCCGGTTTGTT | 1.08
123 | TCTGCAGCCCCTTTTGGAATCCCCATCTCA | 3.63
124 | AAAGTCTACATTCTAGATGACCCCTCTCTA | 3.98
125 | ATCATGAACTGAGTACTATCAGATCCACCA | -0.631

Row | Sequence | binding signal (log2 normalized intensity)
126 | GTAATCCCATTTCCCTTGTTTACCTTGGTG | 1.95
127 | GGGTGGTGGTTACCGGCAGAGGCTGCAGAG | 0.249
128 | AGTGCACCTTAATAAGCACATTCCTTTCCC | -0.816
129 | CCCAGTATGAGCGGCGCTGACCCCGGGAGC | 2.54
130 | AGTGAGCCTTGCCGTGCTGCGGTGGGCTCC | -1.25
131 | GCCTCATGGACTTTGAAGGAGATTCCTGTG | 0.859
132 | ATCCTTATGGTCTCTTCCAAAGCTGAAATG | 1.15
133 | AGCAGCCTCAGTGGCTCACAAATGGAGTTT | 0.801
134 | GAAACATCTACCCTTGACAATTCCTATTCA | -1.15
135 | GATTCCACCTTAGAGGGACGAAGGTCACTA | 3.88
136 | GATTAGATAACATCTGGACTTTACACAGAC | 3.76
137 | CTCAGAACTACCAATGTTTACCAGCTCTGT | -1.15
138 | TTCCCTATCCCGCTGCTTCCACCAGGGCTA | -1.2
139 | TCTTATTTACCGAAATGTGGGTGAGGCTGT | 1.6
140 | AGAGCATTTCAAACCTTTGCCCCACTCTCC | 4.32
141 | AGATGATAAGCCCTGAGTAGTTCTTCTGGT | 0.188
142 | AGAACTTCTCATCTTATCTAGTTTCCTAGC | -0.146
143 | CCAACCCAACTAGAATGGAACTGAAGGCAG | -1.17
144 | AGGCTGAGGCAGGATGACTGCTTGAGTCCA | 0.968
145 | GAAAGCCTGTTTGCTTCTGCTGTTTGTTTC | 1.77
